Data reported in article PMC6919601, “Identification of Plasmodium dipeptidyl aminopeptidase allosteric inhibitors by high throughput screening” (PLoS ONE, 2019).
The whole screen tested about 110,000 compounds, of which about 230 (0.21%) showed an effect of 50% or more. The list shows a part of the results.

These compounds were tested against DPAP1 (Plasmodium falciparum, UniProt Q8IIJ9) (assay: primary screen, percent inhibition; read by cleavage of a fluorogenic dipeptide substrate; higher = more effect of the substance).
DPAP1, sequence (Q8IIJ9 whole entry, looked up): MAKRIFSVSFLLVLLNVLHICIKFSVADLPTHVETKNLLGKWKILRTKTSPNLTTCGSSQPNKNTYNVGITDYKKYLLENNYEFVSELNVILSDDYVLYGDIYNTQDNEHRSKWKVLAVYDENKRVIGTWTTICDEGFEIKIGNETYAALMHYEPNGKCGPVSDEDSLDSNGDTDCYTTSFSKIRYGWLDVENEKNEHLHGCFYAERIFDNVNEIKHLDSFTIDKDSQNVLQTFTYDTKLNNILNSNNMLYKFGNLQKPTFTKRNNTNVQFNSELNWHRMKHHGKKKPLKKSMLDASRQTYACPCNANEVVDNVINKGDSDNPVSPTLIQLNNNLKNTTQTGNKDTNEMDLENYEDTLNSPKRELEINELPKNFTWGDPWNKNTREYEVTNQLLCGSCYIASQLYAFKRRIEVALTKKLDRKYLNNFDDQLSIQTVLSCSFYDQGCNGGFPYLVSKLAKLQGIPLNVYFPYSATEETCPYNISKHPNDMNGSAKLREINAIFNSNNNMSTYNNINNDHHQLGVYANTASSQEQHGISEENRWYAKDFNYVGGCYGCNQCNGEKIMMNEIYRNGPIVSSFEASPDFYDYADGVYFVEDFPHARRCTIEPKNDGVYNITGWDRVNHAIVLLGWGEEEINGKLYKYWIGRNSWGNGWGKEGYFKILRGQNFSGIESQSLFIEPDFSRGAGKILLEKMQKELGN
Parameters: species or system P. falciparum D10 trophozoite lysates; single well
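Note: 30 min substrate incubation versus DMSO and 10 µM JCP410 controls.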

| Compound | % Inhibition @ 10 uM [%] |
| --- | --- |
| Cc1ccccc1C1CC(=O)N2CN(C3CCCCC3)CSC2=C1C#N (stereo not shown) | 24 |
| CCOC1O[C@@H](CS(=O)(=O)Cc2ccccc2OC(F)F)C(=O)N[C@H]1CC (stereo partly shown) | -3.49 |
| COC(=O)c1cc(S(=O)(=O)NCC(C)c2ccccc2)c[nH]1 (stereo not shown) | 2.42 |
| Cc1ccc(C2C=C(c3ccc(OC(F)F)cc3)Nc3ncnn32)cc1 (stereo not shown) | 3.32 |
| Cc1onc(-c2c(Cl)cccc2Cl)c1C(=O)Nc1ccc(S(N)(=O)=O)cc1 | 1.64 |
| COCCN1Cc2cccc(C(=O)NCCc3ccccc3)c2C1=O | -6.06 |
| Cc1cc(C)c(OCC(O)CNC(C)(C)CC(C)(C)C)c(C)c1 (stereo not shown) | -4.24 |
| CCOCCCNC(=O)c1ccc(CN2CC(=O)N3CCCCC3C2=O)cc1 (stereo not shown) | -0.35 |
| Cc1cccc(N(CC(=O)NC2CCCC2)S(C)(=O)=O)c1C | -3.65 |
| CC12CC3(C)CC(C(=O)O)(C1)CC(C(=O)O)(C2)C3 | 6.96 |
| Cc1cccc2c1nc(-c1ccccc1)n1nnnc21 | 1.88 |
| Cc1ccc(OCC(=O)Nc2ccccc2C)c(C)c1 | 2.82 |
| COc1ccc(CCNC(=O)Cn2nnc(-c3ccc(S(C)(=O)=O)cc3)n2)cc1OC | 1.03 |
| COCc1cc(C)nc(SCC(=O)Nc2ccc(C)c(C)c2)c1C#N | -4.4 |
| CCCn1cnc2cc(NCc3ccccn3)ccc21 | -12.6 |
| O=c1c(NCCCN2CCCCCC2)c(-c2ccccc2)c1=O | 4.1 |
| O=C(NCc1ccco1)c1ccc2c(c1)ncn2-c1ccc(OCc2ccccc2)cc1 | 7.3 |
| CC1C(O)CCC1(C(=O)O)c1ccccc1 (stereo not shown) | -7.89 |
| COc1ccc(NC(C)CCc2ccc(O)cc2)cc1 (stereo not shown) | 1.29 |
| CC(=O)Nc1ccc(NC(=O)COc2ccc(Br)cc2C)cc1 | 3.35 |
| COC(=O)c1sc2nc(-c3ccccc3)nc(N)c2c1C | 0.182 |
| Cc1ccc(SCCC(=O)NC(C)C)cc1 | -2.21 |
| CCc1ccccc1N(CC(=O)N(C)Cc1ccccc1)S(C)(=O)=O | -0.69 |
| N=C1/C(=C\c2cc(Cl)c(O)c(Cl)c2)C(=O)N=C2SC(N3CCCC3)=NN12 | 1.51 |
| CCOC(=O)c1c(C)c(C(=O)NCC2CCCO2)c(C)n1Cc1ccccc1 (stereo not shown) | 0.0579 |
| CCN(CC)C(=O)C1CCCN(Cc2ccc(OC(F)(F)F)cc2)C1 (stereo not shown) | 3.35 |

| Compound | % Inhibition @ 10 uM [%] |
| --- | --- |
| CCC(C)NC(=O)c1cnc(SC)nc1-c1ccccc1 (stereo not shown) | 4.48 |
| O=C(CN1C(=O)c2ccccc2Sc2ncccc21)NCCN1CCOCC1 | -5.68 |
| COc1cccc(CNCc2cccn2-c2nnc(N3CCOCC3)s2)c1 | 2.44 |
| O=C(CCN1C(=O)c2ccccc2C1=O)Nc1cccc(C(F)(F)F)c1 | -1.29 |
| COC(=O)[C@@]1(C)CC[C@]2(C)CC[C@]3(C)C(=CCC4[C@@]5(C)CCC(O)C(C)(C)C5CC[C@]43C)C2C1 (stereo partly shown) | 41.2 |
| COCCCNC(=O)c1cnn2c(C)c(Cc3cccc(Cl)c3)c(C)nc12 | 2.9 |
| Cc1nn(Cc2ccc(F)cc2)c(C)c1NC(=O)c1ccccc1F | -6.74 |
| COc1ccc(N(CC(=O)Nc2ccc(Cl)cc2)S(C)(=O)=O)cc1OC | -5.37 |
| Brc1ccc(CN2CCc3ccccc3C2)o1 | 1.48 |
| CC(=O)c1c(C(C)=O)c(C)n(-c2cccc3cccnc23)c1C | -1.85 |
| Cn1c(=O)c2c(-c3ccc(Cl)cc3)n(C(CO)(CO)CO)cc2n(C)c1=O | -3.12 |
| COc1ccc(/C=C/C2=NC(=C\c3cc(OC)ccc3OC)/C(=O)O2)cc1 | -7.59 |
| Cc1ccc(C2=NS(=O)(=O)N(C)C(C(=O)NC3CCCCC3)=C2)cc1 | 2.32 |
| c1cc(C23CC4CC(CC(C4)C2)C3)ccc1OCCN1CCOCC1 | 2.41 |
| CCc1nnc(SCc2cc(=O)n3ccccc3n2)c2cc3sccc3n12 | 3.08 |
| CCCN(C(C)=O)c1nc(-c2cccc(Cl)c2)cs1 | -2.99 |
| CCOC(=O)c1cnc(N2CCCC2)nc1C1CCNCC1 | -2.83 |
| COc1ccc2c(c1)C1CC(C)(NC(=O)C1C(=O)c1ccccc1)O2 (stereo not shown) | -2.21 |
| Cc1nn2c3ccccc3n(C)c2c1C=O | 2.8 |
| Cc1ccc(CNS(=O)(=O)c2cn(C)cn2)cc1 | 1.47 |
| COc1ccccc1NC(=O)C(c1ccccc1)c1ccccc1 | -0.828 |
| Cn1cc(/C=C(\NC(=O)c2ccco2)C(=O)NCCCO)c2ccccc21 | -3.52 |
| CC(C)C[C@@H](C(=O)NC1(C#N)CC1)c1cccc(-c2ccc(N3CCN(C(=O)OC(C)(C)C)CC3)cc2)c1 | 3.19 |
| CC(C)C(=O)Nc1ccccc1C(=O)Nc1ccc(C(=O)O)cc1 | 13 |
| COc1cccc2c1OC(c1cccnc1)N1N=C(c3cc(C)ccc3O)CC21 (stereo not shown) | 3.39 |
| COc1cc(OC)cc(C(=O)NCCOc2ccccc2C)c1 | -9.59 |

| Compound | % Inhibition @ 10 uM [%] |
| --- | --- |
| CCC(Sc1nc2ccccc2c2nc3ccccc3n12)C(=O)NCCCOC (stereo not shown) | 3.36 |
| Nc1nc(CSc2nc3ccccc3[nH]2)nc(N2CCOCC2)n1 | -2.39 |
| CCOc1ccc(NC(=O)c2ccc(OCC)cc2)cc1 | -7.08 |
| Cc1ccc(-c2csc(-c3cc4ccc(O)cc4oc3=O)n2)cc1C | -1.15 |
| COc1cc(OC)cc(-c2nc3nc(C)c(CCC(=O)NC4CCCC4)c(C)n3n2)c1 | -0.465 |
| Cc1cc(O)n2nc(C(C)C)nc2n1 | 2 |
| C[C@@H](C[C@H](NC(=O)c1ccc(OC(F)(F)F)cc1)C(=O)NCC#N)c1ccccc1 | 0.079 |
| O=c1c2c3c(sc2[nH]c(=S)n1-c1ccccc1)CN(Cc1ccccc1)CC3 | 57.7 |
| NS(=O)(=O)c1ccc2c(c1)C1C=CCC1C(c1ccc(F)cc1)N2 (stereo not shown) | 0.0538 |
| COc1ccccc1CNc1ncc(-c2ccccc2)n1C | -2.91 |
| CCCCN(C)C(=O)Cn1ncc2c(C)n(Cc3ccc(F)cc3)c(C)c2c1=O | -3.96 |
| CCOC(=O)N1CCC(NCCc2ccccc2Cl)CC1 | 5.03 |
| COC(=O)C1=CN(C(C)C)C=C(C(=O)OC)C1c1ccc2c(c1)OCO2 | 3.45 |
| O=S(=O)(c1ccc(Br)c(S(=O)(=O)N2CCCCCC2)c1)N1CCCCCC1 | 5.53 |
| COc1cccc2c(O)c(NC(=O)N3CCC(O)CC3)cnc12 | 5.2 |
| Cc1ccc(Cl)cc1-n1cnnn1 | 3.01 |
| CCOc1ccc(N2C(=O)CC(N3CCN(C(=O)CN4CCCC4)CC3)C2=O)cc1 (stereo not shown) | -4.75 |
| O=C(CCCCCN1C(=O)c2cccc3cccc(c23)C1=O)NCc1cccnc1 | -1.92 |
| O=C(Nc1ccc(F)cc1)c1ccc(C(=O)Nc2ccc(F)cc2)cc1 | -0.351 |
| COc1ccc(C2C3=C(O)CC(C)(C)CC3=NC(C)=C2C(=O)N2CCCCC2)cc1OC (stereo not shown) | -3.23 |
| CCc1nc2ccc(C(=O)N3CCC(N4CCCCC4)CC3)cc2nc1CC | 0.775 |
| Cc1ccccc1OCC(=O)Nc1nccs1 | -2.27 |
| CN(Cc1ccccc1)S(=O)(=O)c1cc(F)ccc1CN1C(=O)c2cccnc2C1=O | -2.74 |
| CC(C)CNC(=O)CN(C)S(=O)(=O)c1ccc(F)cc1 | -6.3 |
| O=C(CC(NCCN1CCOCC1)C(=O)O)Nc1cccc(Cl)c1 (stereo not shown) | -2.98 |
| Cc1ccc(-c2nc3scc(CCNC(=O)c4cccc(C(F)(F)F)c4)n3n2)cc1 | -0.48 |

| Compound | % Inhibition @ 10 uM [%] |
| --- | --- |
| N#Cc1conc1-c1ccc(Cl)cc1 | 1.43 |
| Fc1ccccc1N1CCN(Cc2ccco2)CC1 | 3.8 |
| Cc1cc(C(F)(F)F)nn1CC(=O)Nc1sc2c(c1C(N)=O)CCCC2 | -1.49 |
| CCN1CCN(C(c2cccnc2)c2ccc3cccnc3c2O)CC1 (stereo not shown) | -3.33 |
| Cn1c(SCc2ccc(F)cc2)nc2ccc(C(=O)N3CCN(c4ccccn4)CC3)cc21 | -6.99 |
| COc1ccc(NC(=O)CCCOc2ccc(Cl)cc2C)cc1 | -0.641 |
| O=C(Nc1nccs1)[C@H](c1ccc(F)cc1)N1Cc2ccccc2C1=O | -7.24 |
| Cc1nnc(SCC(=O)NCCc2ccccc2)nc1O | -7.09 |
| CCCCOCC1Cc2c(C)nn(C(N)=S)c2O1 (stereo not shown) | 1.81 |
| Nc1ccc(C23CC4CC(C2)CC(c2ccc(N)cc2)(C4)C3)cc1 | -3.77 |
| COc1ccc(/C=C2\SC(=O)N(c3ccccc3OC)C2=O)cc1 | -9.65 |
| Cc1cc(NC(=O)C2CC(c3ccc(F)cc3)=NO2)no1 (stereo not shown) | -2.16 |
| Cc1ccc(NC(=O)CC2SC(NC3CCCCC3)=NC2=O)cc1 (stereo not shown) | 0.512 |
| CC(=O)N/C(=C\c1ccccc1)C(=O)N(C(C)C)C(C)C | -2.51 |
| Fc1ccccc1OCCCN1CCOCC1 | -2.12 |
| O=C(O)C1CCN(S(=O)(=O)c2ccc3c(c2)OCCO3)CC1 | -2.4 |
| Fc1ccc(CN2CCN(c3ccccn3)CC2)cc1F | 1.4 |
| O=c1cc(CSc2nc3cccnc3[nH]2)nc2ccccn12 | 4.67 |
| N#CCc1ccc(-n2cnnn2)cc1 | -0.834 |
| Cc1ccc(Cc2c(C)nc3nc(SCC(=O)NCCN4CCOCC4)nn3c2C)cc1 | -3.48 |
| COC(=O)c1cc2sc(Cl)cc2n1CC(=O)NCC1CCCO1 (stereo not shown) | -4.01 |
| C1CCC(Nc2nnnn2C2CCCCC2)CC1 | -0.239 |
| Cn1c(=O)c2c(nc3n2CCCN3C2CCCCCCC2)n(C)c1=O | 9.96 |
| Cn1c(C(=O)O)c(CNCCN2CCOCC2)c2ccccc21 | 5.09 |
| O=C(N/C(C(=O)N1CCOCC1)=C(\Sc1ncccn1)c1ccccc1)c1ccccc1 | -8.35 |
